Assay results: US20220031697A1, “Dose and regimen for an hdm2-p53 interaction inhibitor in hematological tumors” (Novartis AG, priority 2017, published 2022)

System: patients with hematological tumors
Assay: Phase I study CHDM201X2101: safety and tolerability (adverse events, DLTs)
Conditions: Regimen 2C, 1 DLT out of 8 evaluable patients in cycle 1

COc1ncc(-c2nc3c(n2C(C)C)[C@H](c2ccc(Cl)cc2)N(c2cc(Cl)cn(C)c2=O)C3=O)c(OC)n1 [HDM201, (S)-5-(5-Chloro-1-methyl-2-oxo-1,2-dihydro-pyridin-3-yl)-6-(4-chloro-phenyl)-2-(2,4-dimethoxy-pyrimidin-5-yl)-1-isopropyl-5,6-dihydro-1H-pyrrolo[3,4-d]imidazol-4-one]
Dose to which BLRM allowed to escalate: up to 90 mg
